Assay results published in article PMC6919601, “Identification of Plasmodium dipeptidyl aminopeptidase allosteric inhibitors by high throughput screening” (PLoS ONE, 2019).
The campaign covered roughly 110,000 compounds. About 230 (0.21%) showed an effect of 50% or more. The list shows a part of the results.

Each compound was assayed against DPAP1 (Plasmodium falciparum, UniProt Q8IIJ9) (assay: primary screen, percent inhibition; read by cleavage of a fluorogenic dipeptide substrate; higher = more effect of the substance).
Chain of DPAP1 (Q8IIJ9 whole entry, looked up): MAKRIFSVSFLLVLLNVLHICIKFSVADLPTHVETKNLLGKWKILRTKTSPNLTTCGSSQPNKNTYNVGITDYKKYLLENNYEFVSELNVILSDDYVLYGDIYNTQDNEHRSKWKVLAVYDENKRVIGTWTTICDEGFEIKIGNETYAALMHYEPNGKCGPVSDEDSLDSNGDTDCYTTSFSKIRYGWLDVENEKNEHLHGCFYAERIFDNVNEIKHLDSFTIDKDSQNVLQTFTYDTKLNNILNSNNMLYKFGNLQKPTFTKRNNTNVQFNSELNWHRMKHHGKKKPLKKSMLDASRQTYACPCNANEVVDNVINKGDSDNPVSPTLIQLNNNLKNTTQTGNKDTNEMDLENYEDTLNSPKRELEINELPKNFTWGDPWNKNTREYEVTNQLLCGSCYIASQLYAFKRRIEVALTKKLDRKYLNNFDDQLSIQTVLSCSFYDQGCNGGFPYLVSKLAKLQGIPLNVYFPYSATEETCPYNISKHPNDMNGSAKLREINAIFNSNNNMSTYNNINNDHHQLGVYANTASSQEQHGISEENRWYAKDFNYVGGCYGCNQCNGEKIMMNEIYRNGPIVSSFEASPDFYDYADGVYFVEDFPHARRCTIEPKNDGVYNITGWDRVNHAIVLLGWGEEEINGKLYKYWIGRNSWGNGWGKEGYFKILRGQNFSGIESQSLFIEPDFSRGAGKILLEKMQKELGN
Set-up: species or system P. falciparum D10 trophozoite lysates; single well
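Note: 30 min substrate incubation versus DMSO and 10 µM JCP410 controls.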

Structure (SMILES) | % Inhibition @ 10 uM [%]
COc1ccc(NC(=O)CSc2nc3cccnc3[nH]2)c(OC)c1 | 3.29
C=C1c2cc(C)c(C)cc2NC(=O)N1c1ccccc1 | -1.55
CC1CCN(C(=O)c2cc3c(s2)-c2ccccc2SC3)CC1 | -2.16
Clc1cccc(CN2CCN(Cc3cccnc3)CC2)c1 | 2.39
CCOC(=O)c1cnc2ncnn2c1O | -11.6
CCN(CC)C1=C(n2nnc3ccccc32)C(=O)c2ccccc2C1=O | -2.5
COCCCNC(=O)c1ccc2c(c1)ncn2-c1ccc(OCc2ccccc2)cc1 | 4.35
CCOC(=O)N1CCC(NC(=O)CSCc2cnn(-c3ccccc3)c2-n2cccc2)CC1 | -1.08
O=C(O)C(c1ccccc1)C(C(=O)O)c1ccccc1 (stereo not shown) | 0.00178
CCC/N=c1\c(NS(=O)(=O)c2cccc(C#N)c2)c(O)oc2ccccc12 | 2.31
N#CC1=C(N)Oc2cc(N)ccc2C1c1ccccc1Br (stereo not shown) | 3.03
COc1ccc(CCc2nc(C)ccc2O)cc1 | -0.128
CC(C)C[C@H](NC(=O)C1CCc2ccccc2C1)C(=O)NCC#N (stereo partly shown) | 4.33
CC(=O)N(C)S(=O)(=O)c1ccc(C)cc1 | 2.92
CCOC(=O)c1c(C)oc2nc(C)nc(NC3CCN(C(=O)OCC)CC3)c12 | 3.11
CNC(=O)CCCc1nc(-c2ccc(C)cc2)no1 | 3.81
COc1ccc(OC)c(NC(=O)c2ccc(OC)c(OC)c2)c1 | 12.2
CN1C(=O)[C@@H]2[C@H](C1=O)[C@H](C(=O)c1ccc(Cl)cc1)N1C=Cc3ccccc3[C@@H]21 | -1.61
O=S(=O)(N1CCCCC1)N1CCN(c2cc(Cl)ccc2Cl)CC1 | -5.13
COc1cc(C(=O)N(Cc2ccc(C)cc2)Cc2ccco2)cc(OC)c1OC | -0.45
COc1ccccc1C(=O)N1CCN(Cc2cc(OC)c(OC)c(OC)c2)CC1 | -0.0619
CCOc1ccc(-c2oc3ccccc3c(=O)c2O)cc1 | 3.73

Structure (SMILES) | % Inhibition @ 10 uM [%]
Cc1ccc(C2=NS(=O)(=O)N(C)C(C(=O)NCc3ccco3)=C2)cc1 | -3.07
CSc1ccc(CN2CCc3c([nH]c4ccccc34)C2)cc1 | 0.317
CC(C)OCCCNC(=O)CN1Cc2ccccc2C1=O | 0.527
CNC(=O)C1CCN(c2nnc(-n3c(C)ccc3C)s2)CC1 | 2.76
COc1ccc(CN2C(=O)c3ccccc3C2C(=O)NCc2cccnc2)c(OC)c1 (stereo not shown) | -0.668
Cc1ccc(C2=NS(=O)(=O)N(C)C(C(=O)N3CCCCC3)=C2)cc1 | 5.48
COc1cccc(NC(=O)C2CC(=O)N(c3ccccc3)C2)c1 (stereo not shown) | -2.74
Cc1nn(CCCC(=O)N2CCCC2)c(=O)c2nn(-c3ccccc3)c(C)c12 | -2.49
COc1ccc(-c2noc(CCCC(=O)NCc3ccco3)n2)cc1 | -6.64
COc1ccccc1C1CC(c2ccccc2)=NN1c1ccc(Br)cc1 (stereo not shown) | -0.0267
CCCC1=C(C(=O)OCC)C(c2cccnc2)C(C#N)=C(N)O1 (stereo not shown) | 4.66
CSc1[nH]nc2ncnc(O)c12 | -3.85
COc1cc(C2C3CN(C)CC=C3C(C#N)=C(N)C2(C#N)C#N)cc(OC)c1OC (stereo not shown) | 0.569
COc1cc(/C=C2/C(=N)N3C(=NC2=O)SN=C3S(C)(=O)=O)ccc1OCc1cccc(C)c1 | 0.163
Ic1ccc(OCCCCCN2CCCCC2)cc1 | 3
O=C(Cn1c(-c2cncs2)nc2ccccc21)Nc1ccc(Cl)cc1 | -5.57
COc1ccc(/C=C/C(=O)NC(C)Cc2ccccc2)cc1 (stereo not shown) | 1.9
COc1cc2c(cc1NC(=O)c1c(C)nn(C(F)F)c1C)oc1ccccc12 | -2.32
O=C(NCC1CCCO1)C1Sc2nnc(-c3ccccc3)n2NC1c1ccc(Cl)cc1 (stereo not shown) | 0.0289
CCc1sc(C2C(C#N)=C(N)OC3=C2C(=O)CCC3)cc1COc1ccccc1Cl (stereo not shown) | 1.43
Nc1nc(N)c2cc(OCc3ccc(Cl)c(Cl)c3)ccc2n1 | -4.39
CCOCCCNC(=O)c1ccc(CSc2nc3cccnc3n2Cc2ccc(OC)cc2)cc1 | 9.02

Structure (SMILES) | % Inhibition @ 10 uM [%]
CCSc1nc(O)c2c(n1)N=C1CCCC(O)=C1C2c1ccc(Br)cc1 (stereo not shown) | 2.1
Cc1ccccc1NC(=O)CSc1nc2cccnc2[nH]1 | -3.39
CCOc1cccc2c1OC(c1ccc(C(=O)OC)cc1)N1N=C(c3cccc(OC)c3)CC21 (stereo not shown) | 0.238
COCCN1C(=O)c2oc3cc(C)cc(C)c3c(=O)c2C1c1ccc(O)c(OC)c1 (stereo not shown) | 3.27
O=c1c2cn[nH]c2[nH]c(=S)n1-c1ccc(F)c(Cl)c1 | 33
CCOc1ccc(N(C(C)C(=O)N2CCCCCC2)S(C)(=O)=O)cc1 (stereo not shown) | 2.44
COCCCNC(=O)CCCC(=O)n1nc(C)c2ccccc21 | 5.39
COc1ccc(C(=O)O)cc1COc1cccc(Cl)c1Cl | 12.6
CCOc1ccccc1N1CCN(Cc2ccc3c(c2)c2ccccc2n3CC)CC1 | -4.5
COc1cc(OC)c(OC)cc1CN1CCN(Cc2ccc(F)cc2)CC1 | 4.96
O=C(O)C1C2CCCCC2=C2CCCCC2C1C(=O)c1ccccc1 (stereo not shown) | 0.937
Cc1ccnc(NC(=O)c2ccccc2F)c1 | 5.44
CC(C)(C)c1ccc(C(=O)NCCc2cccs2)cc1 | 3.66
FC(F)(F)c1cc(-c2cccs2)nc2ncnn12 | 1.19
CCN1CCCC1CNC(=O)Cn1ncc2c1-c1ccccc1OC2 (stereo not shown) | 0.0579
COc1ccc(-c2cn3c(n2)sc2cc(C(=O)N4CCN(Cc5ccccc5)CC4)ccc23)cc1 | 16.6
COc1ccc(CNC(=O)/C(C#N)=C/c2cc(Br)ccc2O)cc1 | 1.42
O=C(Nc1ccc(S(=O)(=O)N2CCCCC2)cc1)C(c1ccccc1)c1ccccc1 | -3.95
O=C(NCC(c1cccnc1)N1CCN(Cc2ccccc2)CC1)c1ccccc1 (stereo not shown) | -7.29
COc1ccccc1N1CCN(C(=O)CN(c2cccc(F)c2)S(C)(=O)=O)CC1 | -10.8
